In all, about 52,000 compounds went through this assay and about 1,700 (3.3%) were called active. No stated cut-off is given here; in the data, active means survival mostly below about 52% (no sharp cut-off); inactive means mostly above about 56%. The list shows a part of the results.

This test concerns Wild type. Description: growth inhibition of S. aureus wild type versus tarO mutant, primary screen, teichoic acid synthesis inhibitors, RN4220, OD600 (AID 463173). The note with it: S. aureus RN4220 wild type/DeltatarO growth, OD600, 18 h, active compounds read low, screened at 18.75 µg/mL (by protocol).
Regarding `Cn1c(Oc2cccc(Cl)c2)nc2c1c(=O)n(Cc1ccccc1Cl)c(=O)n2C`, the survival is inactive: 85%.
Under `Cc1cccc(Nc2nnc(-c3ccc(C)c(S(=O)(=O)N4CCOCC4)c3)c3ccccc23)c1` stands inactive: 86%.
For `CCCOc1ccc(C(=O)Nc2ccc(NC(=O)c3ccc(Br)cc3)cc2)cc1` the value was inactive: 79%; for `COc1ccc(CCNCc2c(C(=O)O)c(C)n(Cc3cccc(C)c3)c2C)cc1OC`, inactive: 87%; for `Cc1nc(-c2ccccc2)sc1C(N)=O`, inactive: 113%.
Under `Cc1cc(C)cc(NC(=O)C2CCN(c3nnc(-n4c(C)ccc4C)s3)CC2)c1` stands inactive: 82%; under `CCOC(=O)c1scc(-c2ccc(C)cc2)c1S(=O)(=O)N1CCN(c2ccccc2)CC1`, inactive: 80%; under `CCc1cccc(NC(=O)CN(C)S(=O)(=O)c2ccc3c(c2)n(C)c(=O)c(=O)n3C)c1`, inactive: 71%.
Take `CCOc1cc(C(=O)Nc2ccc3nc(N4CCN(C)CC4)cc(C)c3c2)cc(OCC)c1OCC`: the survival was inactive: 134%.
For `COc1ccc(-n2c(SCC(=O)Nc3ccc4c(c3)OCO4)nc3c([nH]c4ccccc43)c2=O)cc1` the value was inactive: 81%; for `CC(=O)c1ccc(NS(=O)(=O)c2ccc3[nH]c(=O)[nH]c3c2)cc1`, inactive: 95%; for `COC(=O)c1ccc(C=Nc2ccc3oc(-c4ccc(N(C)C)cc4)nc3c2)cc1`, inactive: 108%.
Under `COc1ccc(Nc2cc(C)c3cc(NC(=O)COc4cccc(C)c4)ccc3n2)cc1` stands inactive: 81%; under `COc1cccc(CNC(=O)C2=C(C)C(=O)OC23CCCCCC3)c1`, inactive: 79%; under `Cc1cccc(N2CCN(C(=O)CCNS(=O)(=O)c3ccc4c(c3)CCN4C(=O)C3CC3)CC2)c1C`, inactive: 73%.
For `COc1ccc2nc(NC(=O)c3nc(S(=O)(=O)Cc4ccc(C)cc4)ncc3Cl)sc2c1` the value was inactive: 96%; for `COc1ccc(Cl)cc1NC(=O)c1noc2c1CCc1ccccc1-2`, inactive: 84%.
Turning to `O=C(CN1C(=O)c2ccccc2Sc2ncccc21)Nc1cccc(C(F)(F)F)c1`, the survival was inactive: 85%.
For `Cc1cc(C)c(Cn2cnc3nc4c(cc3c2=O)CCCC4)c(C)c1` the value was inactive: 70%; for `CCOc1ccccc1NC(=O)CN(c1cc(C)cc(C)c1)S(=O)(=O)c1c(C)nn(C)c1C`, inactive: 69%; for `CCc1cc(=O)oc2c(C)c(OCC(=O)Nc3ccc(S(=O)(=O)N(CC)CC)cc3)ccc12`, inactive: 69%.
For `CCOc1ccc(C(=O)NCC(c2ccc3c(c2)OCO3)N2CCN(C)CC2)cc1` (configuration not stated) the value was inactive: 77%; for `CCOc1ccc2nc(Cl)c(C3CC(c4ccccc4)=NN3C(=O)CCC(=O)O)cc2c1` (configuration not stated), inactive: 74%; for `CCOc1ccc(NC(=O)N2CCC(n3c(C)nc4cccnc43)CC2)cc1`, inactive: 69%.
Under `Cc1nn2c(C)c(C(=O)NCc3cccc(Br)c3)cnc2c1-c1ccccc1` stands inactive: 53%; under `Cc1ccc(-c2nnc(Nc3ccc(O)cc3)c3ccccc23)cc1S(=O)(=O)NC(C)(C)CO`, inactive: 187%.
Turning to `CCOc1ccc(S(=O)(=O)N(CC(=O)Nc2ccc(OC)c(Cl)c2)c2ccccc2)cc1`, the survival was inactive: 102%.
Turning to `CNC(=O)C1CCN(S(=O)(=O)c2ccccc2)CC1`, the survival was inactive: 109%.
Under `Cc1ccc(Cl)cc1N1CCN(C(=O)COc2cc(=O)n(C)c3ccccc23)CC1` stands inactive: 90%.
Under `O=C(NC1CCCCC1)c1ccco1` stands inactive: 102%; under `Cc1ccc(/C=C/c2onc(C)c2S(=O)(=O)N2CCC(C(=O)N3CCN(c4cc(C)ccc4C)CC3)CC2)cc1`, inactive: 85%; under `CC(=O)N1CCc2c(sc3c2c(=O)n(Cc2ccccc2)c(=O)n3Cc2ccccc2Cl)C1`, inactive: 98%.
Under `COc1ccc(Nc2nc3c(S(=O)(=O)c4ccc(C)cc4)nnn3c3ccsc23)cc1Cl` stands inactive: 84%.
Turning to `COC(=O)c1cc2sc(Cl)cc2n1Cc1nc(-c2ccccc2C)oc1C`, the survival is inactive: 85%.
For `COc1ccc(NC(=O)C2CCN(c3ccc(Sc4ccc(C)cc4)nn3)CC2)cc1` the value was inactive: 74%; for `CC1CN(C(=O)N2CCC(C(=O)NCc3cccs3)CC2)c2ccccc2O1` (configuration not stated), inactive: 97%.
Take `CCC1CCCCN1CCCNC(=O)c1c(O)nc2cc(C)ccn2c1=O` (configuration not stated): the survival is inactive: 91%.
For `COc1cc(-c2nc(-c3ccccc3)c(-c3ccc(Br)cc3)[nH]2)cc(OC)c1O` the value was active: 5%; for `CCCCN(CC)C(=O)CSc1nc2ccccc2c(=O)n1Cc1ccco1`, inactive: 105%.
For `COc1cccc(CNC(=O)Cn2c(=O)nc(-c3ccccc3F)c3cc(Cl)ccc32)c1` the value was inactive: 82%; for `CC1CCN(S(=O)(=O)c2ccc3c(c2)N(CC(=O)NC(C)(C)C)C(=O)CS3)CC1`, inactive: 111%; for `COc1ccc(Nc2oc(/C=C/c3cc(OC)c(OC)c(OC)c3)nc2C#N)cc1`, inactive: 78%.
Under `COc1ccc(S(=O)(=O)N(CC(=O)NCCc2ccccc2)c2ccc(Cl)cc2)cc1` stands inactive: 99%.
In the case of `CCOC(=O)c1ccccc1NC(=O)CSc1cn(CC(=O)N2CCCCCC2)c2ccccc12`, the survival was inactive: 86%.
Under `Cc1oc2ncnc(N3CCCCC3)c2c1C(=O)N1CCN(c2ccc(Cl)cc2)CC1` stands inactive: 75%; under `O=C(Nc1ccc2c(c1)CCC2)C1CCN(c2ccc(S(=O)(=O)N3CCCC3)cc2)CC1`, inactive: 116%; under `COc1ccccc1C(=O)Nc1ccc(S(=O)(=O)Nc2nc(C)cc(C)n2)cc1`, inactive: 77%.
Under `CCOc1ccc(C(=O)c2oc3ccccc3c2NC(=O)c2cc(=O)c3ccc(C)cc3o2)cc1` stands inactive: 132%.
For `CC(=O)SCCC(=O)N1CCn2c3c(c4cc(C)ccc42)CCCC31` (configuration not stated) the value was inactive: 115%.
Consider `CCN(Cc1ccccc1)C(=O)c1cc2sccc2n1Cc1ccccc1`, for which the survival is inactive: 108%.
Under `COc1ccc(-c2nc3c4ccccc4n(CC(=O)N4CCN(c5ccccc5F)CC4)c(=O)n3n2)cc1` stands inactive: 91%; under `CCc1ccc(NC(=O)CCCc2nnc3n(C(C)CC)c(=O)c4sccc4n23)cc1` (configuration not stated), inactive: 102%; under `Cc1ccc(NC(=O)CSc2nnc(NC(=O)NC3CCCCC3)s2)cc1`, inactive: 66%.
Under `CCCCN(CC)CCNC(=O)c1nn(C)c2c1CS(=O)(=O)c1ccccc1-2` stands inactive: 85%; under `O=C(Cn1nnc2ccccc21)OCC(=O)c1ccc(Cl)cc1`, inactive: 112%; under `Nc1ccc(N2CCOCC2)c(N)c1`, inactive: 113%.
Under `COC(=O)c1ccccc1NC(=O)c1cc(C)nc2c1c(C)nn2-c1ccc(C)cc1` stands inactive: 78%; under `COc1cccc(OCC(=O)NC2CC(=O)N(c3ccc4c(c3)OCCO4)C2)c1` (configuration not stated), inactive: 71%.
In the case of `COc1cc(OC)c(NC(=O)n2ncc3cc(Cl)ccc32)cc1Cl`, the survival is inactive: 101%.
Under `COc1ccc(C2CC(=O)c3c([nH]c(C(=O)OC4CCCCCC4)c3C)C2)cc1` (configuration not stated) stands inactive: 86%; under `COc1ccc(OC)c(NC(=O)CSC2=Nc3ccccc3C3=NC(CC(=O)NCc4ccc(F)cc4)C(=O)N23)c1` (configuration not stated), inactive: 64%; under `Cc1ccc(Cl)cc1NC(=O)NCc1cccn1Cc1ccc(F)cc1`, inactive: 132%.
Under `O=C(Nc1ccccc1O)c1cc(S(=O)(=O)N2CCCC2)ccc1Cl` stands inactive: 68%.
Under `Cc1ccc(NC(=O)N2CCN(c3nnc(C)c4c(C)n(-c5ccc(Cl)cc5)nc34)CC2)c(C)c1` stands inactive: 73%; under `Cc1ccc(CNC(=O)CSc2ncc(S(=O)(=O)c3ccc(C)c(Cl)c3)c(=O)[nH]2)cc1`, inactive: 68%.
`COc1ccc2c(c1)c1c(c(=O)n(-c3ccc(OC)c(OC)c3)c(=O)n1CC(=O)N1CCCC1)n2C`: the survival was inactive: 127%.
Under `CCOc1ccc(OCC)c(NC(=O)CCc2nc3cccnc3n2Cc2cccs2)c1` stands inactive: 87%; under `COc1ccc(-c2nc(C)c(CCNC(=O)c3c(F)cccc3F)s2)cc1`, inactive: 82%.
For `COc1cc(Cl)c(C)cc1NC(=O)CSc1nc2c(c(=O)[nH]1)CCCC2` the value was inactive: 76%.
Turning to `CCOC(=O)c1cccc(NC(=O)CC2C(=O)N(c3ccc(C)cc3)C(=O)N2Cc2cccc(OC)c2)c1` (configuration not stated), the survival is inactive: 82%.
For `CN(C)c1ccc(CNC(=O)c2cnc3sc(N4CCCCCC4)nn3c2=O)cc1` the value was inactive: 124%; for `COC(=O)N1CCCc2cc(S(=O)(=O)N3CCN(c4ccccc4)CC3)ccc21`, inactive: 97%; for `CCCCNC(=O)CCCn1c(=O)c2ccccc2n(Cc2c(C)cc(C)cc2C)c1=O`, inactive: 82%.
On to `O=C(CN1C(=O)c2cccc3cccc1c23)N1CCCC1`, for which the survival is inactive: 97%.
For `Cc1cccc(Cc2c(C)nc3nc(SCc4ccccc4Cl)nn3c2C)c1` the value was active: -5%; for `Cc1ccc(C)c(Cn2c(=O)n(CCC(=O)NCc3ccc4c(c3)OCO4)c(=O)c3sccc32)c1`, inactive: 91%; for `COc1ccc(C2CC(=O)Nc3c2c(=O)n(C)c2nc4ccccc4n32)cc1` (configuration not stated), inactive: 98%.
For `CCCC(c1nnnn1Cc1ccccc1)N1CCN(c2ccccc2)CC1` (configuration not stated) the value was inactive: 105%.
For `COc1ccc(-c2noc(-c3ccc(C)cc3Cl)n2)cc1OC` the value was inactive: 137%; for `CCOc1ccc(NC(=O)c2sc3ccccc3c2Cl)cc1`, inactive: 83%.
In the case of `COc1cc(Cl)c(C)cc1NC(=O)CSc1cc(-c2ccccc2)nc(C)n1`, the survival is inactive: 80%.
On to `CCOC(=O)c1[nH]c(C)c(C(=O)NCc2cccc(OC)c2)c1C`, for which the survival is inactive: 85%.
Under `COc1ccc(CC(=O)NCCc2csc(-c3ccc(C(F)(F)F)cc3)n2)cc1` stands active: -6%; under `CCc1ccccc1NC(=O)Cn1c(=O)n(CC(=O)NCCc2ccccc2)c(=O)c2ccccc21`, inactive: 77%.
Consider `CS(=O)(=O)n1nc(-c2ccco2)nc1NCc1ccccc1Cl`, for which the survival was inactive: 86%.
For `COc1ccc(C(=O)c2cn(Cc3cccc(C)c3)c3cc4c(cc3c2=O)OCO4)cc1` the value was inactive: 76%; for `Cc1c(/C=C(\C#N)C(=O)Nc2cccc(Cl)c2)c2ccccc2n1Cc1ccccc1`, inactive: 86%.

For the origin of these results see PubChem BioAssay AID463173 (ICCB-Longwood Screening Facility, Harvard Medical School, 2010).
